# Laboratory results taken from PubChem BioAssay AID624417 (National Center for Advancing Translational Sciences (NCATS), 2012).
# Hit rate of the full screen: of about 410,000 compounds, about 6,400 (1.6%) were called active. This list was built around the results that the source calls inconclusive (neither active nor inactive); the mix of calls is not that of the screen. Calls follow the shape of the dose curve; as a rule, active = well fitted inhibition curve with a large enough effect; inconclusive = small, poorly fitted or top-dose-only effect; inactive = no such curve, though single readings can be large or run the other way. No potency is given beside an inconclusive call; the fits are too rough.
# Target: Glucagon-like peptide 1 receptor (Homo sapiens) (UniProt P43220)
# Assay: qHTS of GLP-1 Receptor Inverse Agonists (Inhibition Mode); also: nearly all actives have a fitted effect of over 55% in size
# Settings: HEK293 GLP-1R CRE-luciferase, luminescence, 24 h, GLP-1R form is constitutively active; series mostly up to 38.3 µM
# Outline: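 Assay principle: reduced luminescence from a cAMP-responsive reporter in HEK293 cells co-expressing a constitutively active GLP-1R. Conditions: 24 hr compound incubation, 37 deg C, 5% CO2.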
# Potency is read from the fitted curve at half-maximal effect; tags tell the direction and shape of the fitted curve.
# Chain of UniProt P43220 (P43220 whole entry, looked up): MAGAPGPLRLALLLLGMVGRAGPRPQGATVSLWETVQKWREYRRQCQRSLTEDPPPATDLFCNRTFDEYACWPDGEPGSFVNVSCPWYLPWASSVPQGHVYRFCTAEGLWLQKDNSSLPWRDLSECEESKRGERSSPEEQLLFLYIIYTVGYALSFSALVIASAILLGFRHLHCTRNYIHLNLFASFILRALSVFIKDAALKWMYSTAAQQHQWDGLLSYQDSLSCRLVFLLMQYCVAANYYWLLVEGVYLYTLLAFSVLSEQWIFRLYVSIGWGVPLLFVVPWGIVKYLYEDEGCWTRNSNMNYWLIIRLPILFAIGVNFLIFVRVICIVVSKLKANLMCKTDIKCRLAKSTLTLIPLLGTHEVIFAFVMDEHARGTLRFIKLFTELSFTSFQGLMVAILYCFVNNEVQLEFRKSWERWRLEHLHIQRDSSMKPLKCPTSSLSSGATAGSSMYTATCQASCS
row,SMILES,Potency
1,Brc1ccc2c(c1)OCCOCCOc1cc(Br)ccc1OCCOCCOCCO2,"inconclusive [inhibitor, full curve, poor fit]"
2,CCN(c1ccccc1)S(=O)(=O)c1ccc(OC)c(NC(=O)c2ccco2)c1,"inconclusive [inhibitor, single point]"
3,Cc1ccnc(NCc2cc(Cl)cc(Cl)c2O)c1,"inconclusive [inhibitor, single point]"
4,CCCCSc1nc2sc3c(c2c(=O)n1-c1ccc(OC)cc1)CCN(C)C3,"inconclusive [inhibitor, single point]"
5,CC(=O)c1ccc(NS(=O)(=O)c2cccc(S(=O)(=O)c3ccc(Cl)cc3)c2)cc1,inactive
6,CCc1ccc(OCC(=O)NCCN(C)C)c(Br)c1,active: 10 µM
7,CCOC(=O)c1ccc(N2C(=O)c3n[nH]c(-c4ccco4)c3C2c2ccc(C)cc2)cc1 (configuration not stated),"inconclusive [inhibitor, single point]"
8,O=C(c1cnn(C(=O)c2ccccc2F)c1)c1ccccc1O,"inconclusive [inhibitor, partial curve]"
9,COC(=O)c1[nH]c2ccc(F)cc2c1NS(=O)(=O)c1ccc(F)c(C)c1,"inconclusive [inhibitor, partial curve]"
10,Cc1ccc(C(CNS(=O)(=O)c2ccc(Br)cc2)N2CCN(C)CC2)cc1 (configuration not stated),active: 7.94 µM
11,COc1ccc(CC(=O)N2CCc3cc(OC)c(OC)cc3C2COc2cc(C)cc(C)c2)cc1OC (configuration not stated),inactive
12,COC(=O)c1c(N)sc2c1CCN(c1ncc(C(F)(F)F)cc1Cl)C2,"inconclusive [inhibitor, single point]"
13,CC(=O)N1CCc2cc(S(=O)(=O)NCCN3CCC(C)CC3)ccc21,inactive
14,CN1CCN(c2ccc(Cl)cc2NC(=O)/C=C/c2cccc(F)c2)CC1,"inconclusive [inhibitor, full curve, poor fit]"
15,Oc1ccccc1-c1nc(NCCN2CCOCC2)c2ccccc2n1,"inconclusive [inhibitor, partial curve, poor fit]"
16,CCc1ccc(S(=O)(=O)N(C(=O)c2ccncc2)c2ccc3oc(C)c(C(=O)OC)c3c2)cc1,"inconclusive [inhibitor, full curve, poor fit]"
17,Cc1cc(OCC(=O)N2CCN(c3ccccn3)CC2)c(C)cc1Br,"inconclusive [inhibitor, single point]"
18,CCNC(=O)C[C@@H]1CC[C@H]2[C@@H](COC[C@H](O)CN2C(=O)C2CC2)O1,inactive
19,CC1CCN(S(=O)(=O)c2ccc(C(=O)Nc3nnc(-c4ccccn4)o3)cc2)CC1,inactive
20,Oc1cccc(/C=N/Nc2ccc(Cl)nn2)c1O,active: 1.12 µM
21,CN(CCc1ccccc1)C(=O)c1ccc(NC(=O)Cc2cccc(NC(=O)C3CCN(C(=O)CCc4ccccc4)CC3)c2)cc1,"inconclusive [inhibitor, single point]"

row,SMILES,Potency
1,CC(CCc1ccc(O)cc1)NCc1ccc(Cl)cc1Cl (configuration not stated),"inconclusive [inhibitor, partial curve, poor fit]"
2,O=C(Cn1cc(C(=O)C(F)(F)F)c2ccccc21)Nc1ccccc1F,"inconclusive [inhibitor, partial curve, poor fit]"
3,O=C(Nc1cc(Cl)ccc1Oc1ccccc1)c1ccccc1F,"inconclusive [inhibitor, partial curve, poor fit]"
4,Cc1cccc2cc(C#N)c(NCCNS(=O)(=O)c3ccc4c(c3)OCCO4)nc12,inactive
5,O=C(c1cc(Cl)ccc1[N+](=O)[O-])N1CCc2ccccc2C1,"inconclusive [inhibitor, partial curve, poor fit]"
6,O=C(O)c1cccc(N/N=C/c2ccc(F)c(F)c2)c1,"inconclusive [inhibitor, single point]"
7,CCN(CC)S(=O)(=O)c1ccc(N2CCN(c3cccc(OC)c3)CC2)c([N+](=O)[O-])c1,"inconclusive [inhibitor, partial curve, poor fit]"
8,CCOC(=O)N1CCN(C(=O)c2cc3n(n2)C(C(F)(F)F)CC(c2ccc4c(c2)OCO4)N3)CC1 (configuration not stated),"inconclusive [inhibitor, partial curve, poor fit]"
9,Cc1ccc(S(=O)(=O)Nc2ccc3c(c2)C(=O)N([C@@H](C)CO)C[C@@H](C)[C@@H](CN(C)CC2CC2)OCCCC[C@@H](C)O3)cc1,"inconclusive [inhibitor, single point]"
10,c1ccc(-c2nnc(NC3=NCCC3)o2)cc1,"inconclusive [inhibitor, partial curve, poor fit]"
11,CCOC(=O)c1c(O)c2cc(Cl)ccc2n(CC)c1=O,inactive
12,Cc1ccc(S(=O)(=O)N(C)C)cc1NC(=S)NC(=O)C12CC3CC(CC(C3)C1)C2,"inconclusive [inhibitor, partial curve, poor fit]"
13,Cc1cccc2c(N=O)c(O)n(CCc3ccccc3)c12,"inconclusive [inhibitor, partial curve, poor fit]"
14,Cc1ccc(C)c(N2CCN(c3c(CN4CCCC4)c(=O)oc4ccccc34)CC2)c1,inactive
15,N#Cc1ccc(/C=N/NC(=O)c2cc(-c3cccs3)nc3ccccc23)cc1,"inconclusive [inhibitor, full curve]"
16,Cc1cc(C2=NNC(=NC3CC3)SC2)c(C)n1-c1ccccc1,"inconclusive [inhibitor, full curve, poor fit]"
17,COc1ccc(NC(=O)CN2C(=O)COc3ccc(S(=O)(=O)N4CCCCCC4)cc32)cc1,"inconclusive [inhibitor, partial curve]"
18,CCC1CN(C(=O)N2CCC(C(=O)Nc3ccccc3F)CC2)c2ccccc2O1 (configuration not stated),"inconclusive [inhibitor, single point]"
19,CCOC(=O)CNC(=O)N1CCc2ccc(NC(=O)c3ccccc3Cl)cc2C1,"inconclusive [inhibitor, full curve, poor fit]"
20,Cc1cc(OCCn2nc(C(=O)O)c3ccccc3c2=O)ccc1C(C)C,"inconclusive [inhibitor, single point]"
21,COc1ccc(-c2nc3cc(C)c(Br)c(C)n3c2Cc2ccc(C)cc2)cc1OC,"inconclusive [inhibitor, single point]"

row,SMILES,Potency
1,COc1ccc([C@H]2CC(=O)C=C(c3cccc(C(C)C)c3)C2)cc1OC,"inconclusive [inhibitor, single point]"
2,CC(C)[C@H](NC(=O)N1CC(=O)Nc2ccccc21)C(=O)N[C@H](Cc1c[nH]c2ccccc12)C(=O)O,"inconclusive [inhibitor, partial curve, poor fit]"
3,Cc1ccc(Nc2c(-c3ccccc3O)nc3cnccn23)cc1,"inconclusive [inhibitor, single point]"
4,O=C(NCCSc1c(-c2ccccc2)[nH]c2ccccc12)c1cc2ccccc2oc1=O,"inconclusive [inhibitor, single point]"
5,O=C(c1ccco1)N1CCN(C(=O)c2cnn3c2NC(c2cccs2)CC3C(F)(F)F)CC1 (configuration not stated),inactive
6,CC(Oc1ccc(Cl)cc1)C(=O)Nc1ccccc1N1CCOCC1 (configuration not stated),"inconclusive [inhibitor, single point]"
7,Cc1ccc(-c2csc3ncnc(N4CCN(C(=O)c5ccco5)CC4)c23)cc1,"inconclusive [inhibitor, single point]"
8,O=C(NCC(c1ccco1)N1CCN(c2ccccc2F)CC1)C(=O)NC1CCCC1 (configuration not stated),inactive
9,Cn1nnnc1SCCCNCc1cc(Cl)ccc1OCc1ccc(F)cc1,"inconclusive [inhibitor, single point]"
10,C=CCn1c(NCc2ccc(OC)cc2O)nc2ccccc21,"inconclusive [inhibitor, single point]"
11,COc1ccccc1/C=N/NC(=O)c1ccc(Br)cc1,inactive
12,COc1ccc(NC(=O)CCCOc2ccc(Cl)c(C)c2)cc1S(=O)(=O)N1CCOCC1,"inconclusive [inhibitor, partial curve, poor fit]"
13,COc1cccc(/C=C/C(=O)OCC(=O)N2c3ccccc3CC2C)c1OC (configuration not stated),"inconclusive [inhibitor, single point]"
14,Cc1cc(C)c(NC(=O)c2ccc3nccnc3c2)c(C)c1,"inconclusive [inhibitor, single point]"
15,c1ccc2cc(CSCc3nc4ccccc4[nH]3)ccc2c1,active: 10 µM
16,COc1ccc(OC)c(Nc2nc(-c3cccs3)cs2)c1,"inconclusive [inhibitor, single point]"
17,CCCOc1ccc(CNC(=S)NCc2ccc(OC(C)C)cc2)cc1,"inconclusive [inhibitor, partial curve, poor fit]"
18,O=c1[nH]c(=O)n(-c2ccc(F)cc2)c2c1C(C(F)(F)F)(C(F)(F)F)N=C(c1ccc(F)cc1)N2,"inconclusive [inhibitor, partial curve, poor fit]"
19,COc1ccc(C(=O)CSc2ccc(-c3ccc(C)cc3)nn2)cc1,"inconclusive [inhibitor, single point]"
20,O=S(=O)(NCC(c1ccco1)N1CCN(c2ccccc2F)CC1)c1ccc(F)cc1 (configuration not stated),"inconclusive [inhibitor, partial curve, poor fit]"
